These results are taken from PMC4336329 (PLoS ONE, 2015).

The whole screen tested about 310,000 compounds, of which about 2,200 (0.71%) showed an effect of 50% or more. The effect is printed as a negative number. This is one part of the list.

The assay deals with human ether-à-go-go-related gene (hERG) potassium channel (human, UniProt Q12809). In words: primary screen, population patch clamp on CHO cells stably expressing hERG.
human ether-à-go-go-related gene (hERG) potassium channel, sequence (Q12809 whole entry, looked up): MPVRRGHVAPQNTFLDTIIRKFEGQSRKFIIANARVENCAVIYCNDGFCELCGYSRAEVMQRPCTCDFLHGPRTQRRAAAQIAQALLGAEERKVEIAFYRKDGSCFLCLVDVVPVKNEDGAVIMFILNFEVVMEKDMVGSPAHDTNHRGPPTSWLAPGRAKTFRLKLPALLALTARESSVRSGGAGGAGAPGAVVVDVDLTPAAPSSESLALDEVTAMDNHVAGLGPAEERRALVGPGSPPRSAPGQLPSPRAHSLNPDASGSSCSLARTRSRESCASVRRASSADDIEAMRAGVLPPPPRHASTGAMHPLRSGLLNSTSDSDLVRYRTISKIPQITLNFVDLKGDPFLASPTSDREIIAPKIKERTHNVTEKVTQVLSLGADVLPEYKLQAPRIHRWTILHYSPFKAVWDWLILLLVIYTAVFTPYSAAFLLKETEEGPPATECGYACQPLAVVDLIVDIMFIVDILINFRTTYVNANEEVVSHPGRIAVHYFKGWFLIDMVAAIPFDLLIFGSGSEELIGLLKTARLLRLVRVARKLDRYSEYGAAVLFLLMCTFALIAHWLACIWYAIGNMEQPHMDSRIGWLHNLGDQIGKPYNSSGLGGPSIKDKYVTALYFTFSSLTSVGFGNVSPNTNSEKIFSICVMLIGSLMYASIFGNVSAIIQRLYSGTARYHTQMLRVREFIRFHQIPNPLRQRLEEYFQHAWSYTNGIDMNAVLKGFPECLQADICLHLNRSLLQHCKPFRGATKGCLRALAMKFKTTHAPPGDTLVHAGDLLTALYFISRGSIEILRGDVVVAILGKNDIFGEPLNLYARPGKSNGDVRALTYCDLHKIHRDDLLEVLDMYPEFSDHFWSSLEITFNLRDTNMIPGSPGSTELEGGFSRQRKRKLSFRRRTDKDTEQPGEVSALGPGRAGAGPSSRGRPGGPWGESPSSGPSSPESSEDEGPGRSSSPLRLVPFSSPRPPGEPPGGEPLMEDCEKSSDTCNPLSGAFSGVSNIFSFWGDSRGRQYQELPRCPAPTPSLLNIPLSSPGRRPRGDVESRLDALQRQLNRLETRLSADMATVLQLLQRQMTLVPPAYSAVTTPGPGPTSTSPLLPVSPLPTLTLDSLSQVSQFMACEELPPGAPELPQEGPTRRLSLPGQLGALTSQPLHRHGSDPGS
For `CCc1cccc(OCCCCNCCO)c1.O=C(O)C(=O)O`, the “hERG current change (%, negative = inhibition) at 1uM” value was 14.5%.

Regarding `Cc1ccc(S(=O)(=O)N(CCC#N)C2CCCCC2)c2nsnc12`, the “hERG current change (%, negative = inhibition) at 1uM” value is listed as 11.2%.

As to `O=S(=O)(/N=C(/Nc1cccc2ccccc12)c1ccc(F)cc1)c1ccccc1`, the “hERG current change (%, negative = inhibition) at 1uM” value stood at 7.06%.

In the case of `NNC(=O)Cn1c(SCc2ccccc2)nc2ccccc21`, the “hERG current change (%, negative = inhibition) at 1uM” value is 5.91%.

As to `Cc1cccc(Nc2nc(-c3ccc(O)c(O)c3)cs2)n1`, the “hERG current change (%, negative = inhibition) at 1uM” value was 12.7%.

As to `COc1ccc2[nH]c3c(=O)n(CCCCC(=O)NCCN4CCCC4)c(=S)[nH]c3c2c1`, the “hERG current change (%, negative = inhibition) at 1uM” value is 7.92%.

`S=c1[nH]ncn1/N=C/c1cccc(Oc2ccccc2)c1`: the “hERG current change (%, negative = inhibition) at 1uM” value was 10.7%.

As for `COc1cc(NC(=O)CCc2nnc3ccc(N4CCN(C)CC4)nn23)cc(OC)c1`, the “hERG current change (%, negative = inhibition) at 1uM” value was determined as 30%.

Consider `Cc1c(C(=O)OCC2CCCO2)[nH]c2c1C(=O)CC(c1ccc(N(C)C)cc1)C2` (stereo not drawn), for which the “hERG current change (%, negative = inhibition) at 1uM” value is -2.54%.

Turning to `O=C(CSc1nc(O)cc(=O)[nH]1)N1c2ccccc2Sc2ccccc21`, the “hERG current change (%, negative = inhibition) at 1uM” value stood at 8.31%.

For `CN1CCN(C(=O)Nc2ccc3c(c2)N(C)C(=O)c2ccccc2S3)CC1`, the “hERG current change (%, negative = inhibition) at 1uM” value is recorded as 7.91%.

Consider `Cc1ccc(SCC(=O)N2CCN(c3ccccn3)CC2)cc1`, for which the “hERG current change (%, negative = inhibition) at 1uM” value is 8.43%.

As to `O=C1CCCN1CCCNc1ncnc2c1[nH]c1ccc(Cl)cc12`, the “hERG current change (%, negative = inhibition) at 1uM” value is -18%.

`CCOc1ncccc1C(=O)OCC(=O)Nc1cc(S(=O)(=O)N(CC)CC)ccc1C`: the “hERG current change (%, negative = inhibition) at 1uM” value is on record as -10.5%.

For the compound `O=C(O)CCC(=O)N1N=C(c2c(-c3ccccc3)c3cc(Cl)ccc3[nH]c2=O)CC1c1ccco1` (stereo not drawn), the “hERG current change (%, negative = inhibition) at 1uM” value is 10.7%.

Turning to `COc1cc(CNCCO)cc(Br)c1OCc1ccccc1Cl.Cl`, the “hERG current change (%, negative = inhibition) at 1uM” value is listed as 20.4%.

Turning to `COc1ccc(-c2nnc3ccc(SC(C(C)=O)C(C)=O)nn23)cc1OC`, the “hERG current change (%, negative = inhibition) at 1uM” value is 7.78%.

As for `O=C1CS/C(=N/N=C\c2ccn[nH]2)N1`, the “hERG current change (%, negative = inhibition) at 1uM” value was determined as 14.7%.

Take `CC(=O)OC(C(=O)NCCN1CCOCC1)c1c(F)cccc1F` (stereo not drawn): the “hERG current change (%, negative = inhibition) at 1uM” value worked out at 5.6%.

For the compound `O=C(CC1COc2ccccc2O1)NCCc1ccccc1` (stereo not drawn), the “hERG current change (%, negative = inhibition) at 1uM” value amounted to 2.54%.

On to `CCOc1ccccc1C(=O)NC(C(=O)N(C)Cc1ccc2c(c1)OCO2)C(C)C` (stereo not drawn), for which the “hERG current change (%, negative = inhibition) at 1uM” value is 12%.

With `CCn1nnc(-c2ccccc2NC(=O)c2cccc(-n3cnnn3)c2)n1`, the “hERG current change (%, negative = inhibition) at 1uM” value is -8.88%.

On to `CCc1nnc(SCC(=O)Nc2ccc(N3CCOCC3)cc2)o1`, for which the “hERG current change (%, negative = inhibition) at 1uM” value came out at 3.16%.

On to `Cc1cccc(N2CCN(CC(O)COc3ccccc3Cl)CC2)c1` (stereo not drawn), for which the “hERG current change (%, negative = inhibition) at 1uM” value is -15%.

In the case of `CC1(C)CC(=O)C=C(Nc2ccc([N+](=O)[O-])cc2)C1`, the “hERG current change (%, negative = inhibition) at 1uM” value is recorded as 11.1%.

Consider `COc1cccc(/C=C2\SC(=S)N(CCCC(=O)N3CCCC3)C2=O)c1`, for which the “hERG current change (%, negative = inhibition) at 1uM” value is on record as -2.58%.

As for `S=c1[nH]nc(Cc2noc3ccccc23)n1-c1ccc(Cl)cc1`, the “hERG current change (%, negative = inhibition) at 1uM” value amounted to 12.8%.

In the case of `COc1ccccc1-c1coc2c(CN3CCN(C)CC3)c(O)ccc2c1=O`, the “hERG current change (%, negative = inhibition) at 1uM” value is 7.36%.

In the case of `FC(F)(F)c1ccc2c(c1)n(Cc1ccccc1)c1[n+]2CCCCC1.[Cl-]`, the “hERG current change (%, negative = inhibition) at 1uM” value is recorded as -8.16%.

For `OCCc1ccc(-c2ccc(Cl)cc2)o1`, the “hERG current change (%, negative = inhibition) at 1uM” value is listed as 12.3%.

Take `CCOC(=O)c1c(C)c(C)n(Cc2ccc(OC)c(OC)c2)c1C`: the “hERG current change (%, negative = inhibition) at 1uM” value was 7.48%.

`CCCN(CC1CC1)C(=O)COC(=O)c1[nH]c(C)c(C(=O)OCC)c1C`: the “hERG current change (%, negative = inhibition) at 1uM” value is on record as 9.2%.

On to `COCCN(Cc1cc2cc(C)ccc2nc1Cl)C(=O)Nc1ccccc1C`, for which the “hERG current change (%, negative = inhibition) at 1uM” value was 5.16%.

In the case of `Cc1ccc(Cn2c(=O)n(Cc3ccco3)c(=O)c3ccccc32)cc1`, the “hERG current change (%, negative = inhibition) at 1uM” value turned out to be 12.5%.

As to `CCC12OC(=N)C(C#N)(C1C)C(C#N)(C#N)C(c1ccccc1)O2` (stereo not drawn), the “hERG current change (%, negative = inhibition) at 1uM” value is 4.09%.

With `CN(CCNC(=O)c1ccc(CS(=O)(=O)c2c(Cl)cccc2Cl)o1)CCc1ccccc1`, the “hERG current change (%, negative = inhibition) at 1uM” value is listed as -50.4%.

In the case of `CCOc1ccc(-c2cc(C(=O)O)c3ccccc3n2)cc1`, the “hERG current change (%, negative = inhibition) at 1uM” value was determined as 7.66%.

Regarding `CCN1CCCC1CNC(=O)c1cc2c(OC)cccc2[nH]1` (stereo not drawn), the “hERG current change (%, negative = inhibition) at 1uM” value is on record as -11.5%.

As for `COc1ccccc1CNCC(=O)Nc1ccccc1-n1cccc1.Cl`, the “hERG current change (%, negative = inhibition) at 1uM” value was -1.72%.

With `Cc1noc(C)c1COc1cccc(C(=O)Oc2ccc3c(c2)OCO3)c1`, the “hERG current change (%, negative = inhibition) at 1uM” value amounted to 4.74%.

Take `COCC(=O)Nc1ccc2c(c1)OCC(=O)N2Cc1ccccc1F`: the “hERG current change (%, negative = inhibition) at 1uM” value is listed as 10%.

`COC(=O)C1=C(C)OC(N)=C(C#N)C1c1cc2cccc(C)c2nc1Cl` (stereo not drawn): the “hERG current change (%, negative = inhibition) at 1uM” value is recorded as 14.8%.

For the compound `COC(=O)CC/C(O)=C1/C(=N)CC(C)(C)CC1=O`, the “hERG current change (%, negative = inhibition) at 1uM” value is on record as 20.2%.

As for `CCOP1(=O)OCC2OC(n3cnc4c(N)ncnc43)C(O)C2O1` (stereo not drawn), the “hERG current change (%, negative = inhibition) at 1uM” value amounted to 10.5%.

For the compound `COc1ccc(NC(=O)CCSc2ccc(C)cc2)cc1S(=O)(=O)Nc1ccccc1Cl`, the “hERG current change (%, negative = inhibition) at 1uM” value came to 21.2%.

With `CN(c1ccccc1)S(=O)(=O)c1ccc(Cl)c(C(=O)NCC(c2ccco2)N2CCCC2)c1` (stereo not drawn), the “hERG current change (%, negative = inhibition) at 1uM” value is -5.2%.

`CC(C)OCCCn1c(=S)[nH]c2cc3c(cc2c1=O)OCO3`: the “hERG current change (%, negative = inhibition) at 1uM” value came out at 17.2%.

Turning to `COc1ccc2nc(NC(=O)C3CCN(C(=O)c4ccco4)CC3)sc2c1`, the “hERG current change (%, negative = inhibition) at 1uM” value came out at 9.83%.

Take `CCOC(=O)c1c(S(=O)(=O)Nc2ccc(C)cn2)c(C)n(C)c1C`: the “hERG current change (%, negative = inhibition) at 1uM” value is recorded as 16.7%.

For the compound `O=c1cc(-c2ccccc2)c2ccccc2[nH]1`, the “hERG current change (%, negative = inhibition) at 1uM” value amounted to 12.4%.

On to `CCc1ccc(OC(C)C(=O)N(Cc2ccco2)C2CCS(=O)(=O)C2)cc1` (stereo not drawn), for which the “hERG current change (%, negative = inhibition) at 1uM” value is 0.46%.

For `Cc1cc(OCc2cc(C(=O)N(C)Cc3ccccn3)no2)cc(C)c1Cl`, the “hERG current change (%, negative = inhibition) at 1uM” value turned out to be 9.07%.

On to `COc1ccc(/C=C/c2nc(C#N)c(NCCN(C)C)o2)cc1OC`, for which the “hERG current change (%, negative = inhibition) at 1uM” value worked out at 8.79%.

`O=C(Cc1ccccc1)N[C@@H](Cc1ccccc1)C(=O)O`: the “hERG current change (%, negative = inhibition) at 1uM” value is reported as 9.01%.

Consider `CN1CCN(c2c(F)cc3c(=O)c(C(=O)O)cn4c3c2SCC4)CC1`, for which the “hERG current change (%, negative = inhibition) at 1uM” value is 3.59%.

For the compound `CCn1nc(C(=O)Nc2ccc(C)c(C)c2)c(Cl)c1Cl`, the “hERG current change (%, negative = inhibition) at 1uM” value came out at 7.46%.

`O=Cc1cn(-c2ccccc2)nc1-c1ccncc1`: the “hERG current change (%, negative = inhibition) at 1uM” value is -6.77%.
